This assay has as its system Trichoderma virens ATCC 9645. The assay can be described thus: growth yield (OD600) with compound + IPBC relative to untreated control; higher = less growth inhibition. To be noted: compound concentration: 100 uM, IPBC concentration: 200 ng/ml. The procedure, abridged:
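A biocide at 200 ng ml^−1 was co-applied to some wells, and library compounds were present in all test wells at 100 μM final. The wells held 100 μl of Trichoderma virens ATCC 9645 spores at 15,000 spores ml^−1 in potato dextrose broth, grown at 30 °C in 96-well plates, with OD600 read at 40 h and 72 h. Results are relative growth against the control without either agent, averaged across duplicate screens.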

Structures can show the parent of a compound that is named as a salt. ± gives the standard error. Hit rate of the full screen: of about 1,300 compounds, about 130 (10%) showed an effect of 50% or more. Only a part is listed here, and it is no random draw.

Regarding `C[C@H]1COc2c(N3CCN(C)CC3)c(F)cc3c(=O)c(C(=O)O)cn1c23` [Levofloxacin] + CCCCNC(=O)OCC#CI [3-iodo-2-propynyl butylcarbamate (IPBC)], the growth yield turned out to be 99.6 ± 10% (40 h) and 100 ± 6.4% (72 h).

On to `NC(CO)C(=O)NNCc1ccc(O)c(O)c1O` (configuration not stated) [Benserazide hydrochloride] + CCCCNC(=O)OCC#CI [3-iodo-2-propynyl butylcarbamate (IPBC)], for which the growth yield came out at 63.9 ± 0.64% (40 h) and 75.2 ± 0.52% (72 h).

Consider `NCCC[C@H](N)CC(=O)N[C@H]1CNC(=O)[C@H]([C@H]2C[C@H](O)NC(N)=N2)NC(=O)/C(=C/NC(N)=O)NC(=O)[C@H](CO)NC(=O)[C@H](CO)NC1=O` [Viomycin sulfate] + CCCCNC(=O)OCC#CI [3-iodo-2-propynyl butylcarbamate (IPBC)], for which the growth yield reads like this: (40 h) 97.21 ± 0.32%; (72 h) 97.43 ± 0.52%.

In the case of `O=C(Oc1cccc2cccnc12)c1ccccc1` [Benzoxiquine] + CCCCNC(=O)OCC#CI [3-iodo-2-propynyl butylcarbamate (IPBC)], the growth yield is 36.4 ± 0.48% (40 h) and 65.5 ± 0.73% (72 h).

With `CN1CCC(OC(c2ccccc2)c2ccccc2)CC1` [Diphenylpyraline hydrochloride] + CCCCNC(=O)OCC#CI [3-iodo-2-propynyl butylcarbamate (IPBC)], the growth yield reads like this: (40 h) 81.96 ± 0.64%; (72 h) 85.4 ± 1.3%.

Take `CN(C)C(=O)Oc1cccc([N+](C)(C)C)c1` [Neostigmine bromide] + CCCCNC(=O)OCC#CI [3-iodo-2-propynyl butylcarbamate (IPBC)]: the growth yield (40 h) turned out to be 83.4 ± 1.1% and the growth yield (72 h) worked out at 92.19 ± 0.52%.

`Clc1ccc(Nc2nnc(Cc3ccncc3)c3ccccc23)cc1` [Vatalanib] + CCCCNC(=O)OCC#CI [3-iodo-2-propynyl butylcarbamate (IPBC)]: the growth yield was 72.59 ± 0.16% (40 h) and 82% (72 h).

As to `C[C@H](CCC(=O)O)[C@H]1CC[C@H]2[C@@H]3CC[C@@H]4C[C@H](O)CC[C@]4(C)[C@H]3CC[C@]12C` [Lithocholic acid] + CCCCNC(=O)OCC#CI [3-iodo-2-propynyl butylcarbamate (IPBC)], the growth yield runs as follows: (40 h) 112 ± 9.5%; (72 h) 106 ± 8.2%.

Regarding `CC(=O)SCC(Cc1ccccc1)C(=O)NCC(=O)OCc1ccccc1` (configuration not stated) [Racecadotril] + CCCCNC(=O)OCC#CI [3-iodo-2-propynyl butylcarbamate (IPBC)], the growth yield by setting is: (40 h) 73.7 ± 1.6%; (72 h) 81.9 ± 1.6%.

Consider `COC(=O)C1=C(C)NC(C)=C(C(=O)OC(C)C)C1c1cccc2nonc12` (configuration not stated) [Isradipine] + CCCCNC(=O)OCC#CI [3-iodo-2-propynyl butylcarbamate (IPBC)], for which the growth yield by setting is: (40 h) 81.3 ± 6.7%; (72 h) 87.6 ± 3.9%.

In the case of `O=C(O)CCCC[C@@H]1SC[C@@H]2NC(=O)N[C@@H]21` [Biotin] + CCCCNC(=O)OCC#CI [3-iodo-2-propynyl butylcarbamate (IPBC)], the growth yield was found to be 85.3 ± 3.3% (40 h) and 91.03 ± 0.84% (72 h).

Source of the values: the supplement of paper PMC8007513.
